B1: Caulobacter ParB omega fusion; a variant is named by its letters at X, in order, B8GW30 (parent)
chain: MESVVVGEPGMSEGRRGLGRGLSALLGEVDAAPAQAPGEQLGGSREAPIEILQRNPDQPRRTFREEDLEDLSNSIREKGVLQPILVRPSPDTAGEYQIVAGERAWRAAQRAGLKTVPIMVRELDDLAVLEIGIIENVQRADLNVLEEALSYKVLMEKFERTQENIAQTIGKSXSHVANXMRLLXLPDEVQSYLVSGELTAXHARAIAAAADPVALAKQIIEGGLSVRETEALARKAPNLSAGKSKGGRPPRVKDTDTQALESDLSSVLGLDVSIDHRGSTGTLTITYATLEQLDDLCNRLTRGI

Over roughly 81,000 sequences, “one-hybrid fitness for binding parS DNA” has its median near -0.17; the highest 2% begin near 0.51. The list shows a part of the results.

In this experiment the parent is B1. The experiment is described as follows: one-hybrid fitness for binding parS DNA (scaled: cognate 1, non-cognate 0); higher = stronger binding. The note with it: with parS DNA site. The essentials:
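In E. coli USO, a HIS3 reporter with its site placed 19 bp from the promoter was used to select Caulobacter ParB variants randomised at four specificity codons. Growth lasted 48 hours at 37°C on histidine-free M9 containing 0.1 mM IPTG and 5 mM 3-AT. Fitness was taken as the log change in variant-to-wild-type read ratio from Illumina sequencing of pre- and post-selection plasmids, rescaled between the non-cognate and cognate sites.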
PLMT: the “one-hybrid fitness for binding parS DNA” value was at most 0.2.

Consider ERKT, for which the “one-hybrid fitness for binding parS DNA” value is at most 0.2.

As for VMPF, the “one-hybrid fitness for binding parS DNA” value is at most 0.2.

With EGTE, the “one-hybrid fitness for binding parS DNA” value is at most 0.2.

Consider VYYA, for which the “one-hybrid fitness for binding parS DNA” value was at most 0.2.

For the variant ARFG, the “one-hybrid fitness for binding parS DNA” value was at most 0.2.

Turning to FHPT, the “one-hybrid fitness for binding parS DNA” value is at most 0.2.

As to TKSG, the “one-hybrid fitness for binding parS DNA” value was at most 0.2.

In the case of YREG, the “one-hybrid fitness for binding parS DNA” value is at most 0.2.

With TYRH, the “one-hybrid fitness for binding parS DNA” value is at most 0.2.

Consider YLLA, for which the “one-hybrid fitness for binding parS DNA” value is at most 0.2.

As for VRWA, the “one-hybrid fitness for binding parS DNA” value was at most 0.2.

For SGCL, the “one-hybrid fitness for binding parS DNA” value is at most 0.2.

For the variant SQHC, the “one-hybrid fitness for binding parS DNA” value is at most 0.2.

In the case of KMHT, the “one-hybrid fitness for binding parS DNA” value was at most 0.2.

On to TNRN, for which the “one-hybrid fitness for binding parS DNA” value was at most 0.2.

Take NFRV: the “one-hybrid fitness for binding parS DNA” value is at most 0.2.

Consider MYGG, for which the “one-hybrid fitness for binding parS DNA” value was at most 0.2.

For ANKT, the “one-hybrid fitness for binding parS DNA” value was at most 0.2.

For the variant ASWI, the “one-hybrid fitness for binding parS DNA” value is at most 0.2.

Regarding LLPF, the “one-hybrid fitness for binding parS DNA” value is at most 0.2.

As for QCRN, the “one-hybrid fitness for binding parS DNA” value was at most 0.2.

In the case of QCLL, the “one-hybrid fitness for binding parS DNA” value is at most 0.2.

As to PRLR, the “one-hybrid fitness for binding parS DNA” value is at most 0.2.

As for RFDF, the “one-hybrid fitness for binding parS DNA” value was at most 0.2.

For the variant MELT, the “one-hybrid fitness for binding parS DNA” value was at most 0.2.

PHWT: the “one-hybrid fitness for binding parS DNA” value was at most 0.2.

For the variant KPMR, the “one-hybrid fitness for binding parS DNA” value was at most 0.2.

On to DITG, for which the “one-hybrid fitness for binding parS DNA” value was at most 0.2.

VVMN: the “one-hybrid fitness for binding parS DNA” value was at most 0.2.

In the case of ALQI, the “one-hybrid fitness for binding parS DNA” value was at most 0.2.

Regarding DYIL, the “one-hybrid fitness for binding parS DNA” value is at most 0.2.

Take FPLG: the “one-hybrid fitness for binding parS DNA” value is at most 0.2.

Take TRGA: the “one-hybrid fitness for binding parS DNA” value is at most 0.2.

Regarding IFWG, the “one-hybrid fitness for binding parS DNA” value is at most 0.2.

Turning to EDDS, the “one-hybrid fitness for binding parS DNA” value was at most 0.2.

On to KSDS, for which the “one-hybrid fitness for binding parS DNA” value is at most 0.2.

As to WSVM, the “one-hybrid fitness for binding parS DNA” value was at most 0.2.

In the case of RMFE, the “one-hybrid fitness for binding parS DNA” value is at most 0.2.

As for LPIK, the “one-hybrid fitness for binding parS DNA” value was at most 0.2.

On to LKLI, for which the “one-hybrid fitness for binding parS DNA” value was at most 0.2.

On to KWRG, for which the “one-hybrid fitness for binding parS DNA” value was at most 0.2.

With RNNC, the “one-hybrid fitness for binding parS DNA” value worked out at 0.869.

KTTQ: the “one-hybrid fitness for binding parS DNA” value was at most 0.2.

LLHS: the “one-hybrid fitness for binding parS DNA” value is at most 0.2.

Regarding RRCE, the “one-hybrid fitness for binding parS DNA” value is at most 0.2.

On to AYRS, for which the “one-hybrid fitness for binding parS DNA” value is at most 0.2.

For the variant AIHQ, the “one-hybrid fitness for binding parS DNA” value was at most 0.2.

In the case of FQYG, the “one-hybrid fitness for binding parS DNA” value is at most 0.2.

GEDR: the “one-hybrid fitness for binding parS DNA” value is at most 0.2.

In the case of QFKS, the “one-hybrid fitness for binding parS DNA” value was at most 0.2.

KNKP: the “one-hybrid fitness for binding parS DNA” value is at most 0.2.

Turning to GRLV, the “one-hybrid fitness for binding parS DNA” value is at most 0.2.

As for WRRW, the “one-hybrid fitness for binding parS DNA” value was at most 0.2.

For HGKT, the “one-hybrid fitness for binding parS DNA” value was at most 0.2.

Take RKWI: the “one-hybrid fitness for binding parS DNA” value was at most 0.2.

As for HLER, the “one-hybrid fitness for binding parS DNA” value was at most 0.2.

Regarding FLLI, the “one-hybrid fitness for binding parS DNA” value is at most 0.2.

As for AFSG, the “one-hybrid fitness for binding parS DNA” value was at most 0.2.

For the variant KNSF, the “one-hybrid fitness for binding parS DNA” value was at most 0.2.

Consider GMLN, for which the “one-hybrid fitness for binding parS DNA” value was at most 0.2.

Consider DYML, for which the “one-hybrid fitness for binding parS DNA” value is at most 0.2.

As to DPSD, the “one-hybrid fitness for binding parS DNA” value was at most 0.2.

APPW: the “one-hybrid fitness for binding parS DNA” value was at most 0.2.

For KRLK, the “one-hybrid fitness for binding parS DNA” value was at most 0.2.

On to ASTR, for which the “one-hybrid fitness for binding parS DNA” value is at most 0.2.

In the case of PFPI, the “one-hybrid fitness for binding parS DNA” value was at most 0.2.

Regarding GYMG, the “one-hybrid fitness for binding parS DNA” value is at most 0.2.

PHVA: the “one-hybrid fitness for binding parS DNA” value was at most 0.2.

In the case of YLRE, the “one-hybrid fitness for binding parS DNA” value is at most 0.2.

As to ATLR, the “one-hybrid fitness for binding parS DNA” value was at most 0.2.

For the variant YLIA, the “one-hybrid fitness for binding parS DNA” value is at most 0.2.

For the variant ACSQ, the “one-hybrid fitness for binding parS DNA” value was at most 0.2.

With IISM, the “one-hybrid fitness for binding parS DNA” value is at most 0.2.

Turning to KTLA, the “one-hybrid fitness for binding parS DNA” value is at most 0.2.

ITNC: the “one-hybrid fitness for binding parS DNA” value is at most 0.2.

With DNTK, the “one-hybrid fitness for binding parS DNA” value was at most 0.2.

For AWWT, the “one-hybrid fitness for binding parS DNA” value was at most 0.2.

As to YLTL, the “one-hybrid fitness for binding parS DNA” value was at most 0.2.

Turning to ANQT, the “one-hybrid fitness for binding parS DNA” value was at most 0.2.

In the case of SRWY, the “one-hybrid fitness for binding parS DNA” value is at most 0.2.

On to NSMH, for which the “one-hybrid fitness for binding parS DNA” value was at most 0.2.

In the case of LSSG, the “one-hybrid fitness for binding parS DNA” value was at most 0.2.

On to PYIG, for which the “one-hybrid fitness for binding parS DNA” value was at most 0.2.

As for PNTT, the “one-hybrid fitness for binding parS DNA” value is at most 0.2.

Consider RGPI, for which the “one-hybrid fitness for binding parS DNA” value is at most 0.2.

For the variant SFRR, the “one-hybrid fitness for binding parS DNA” value was at most 0.2.

As for KHTR, the “one-hybrid fitness for binding parS DNA” value is at most 0.2.

For DSRG, the “one-hybrid fitness for binding parS DNA” value was at most 0.2.

For the variant KDTN, the “one-hybrid fitness for binding parS DNA” value is at most 0.2.

As for RHCH, the “one-hybrid fitness for binding parS DNA” value is at most 0.2.

On to QTGQ, for which the “one-hybrid fitness for binding parS DNA” value was at most 0.2.

Take ADSD: the “one-hybrid fitness for binding parS DNA” value is at most 0.2.

ILRC: the “one-hybrid fitness for binding parS DNA” value is at most 0.2.

CLQA: the “one-hybrid fitness for binding parS DNA” value was at most 0.2.

Take QIPC: the “one-hybrid fitness for binding parS DNA” value is at most 0.2.

PHFK: the “one-hybrid fitness for binding parS DNA” value was at most 0.2.

SDNV: the “one-hybrid fitness for binding parS DNA” value was at most 0.2.

On to HDAL, for which the “one-hybrid fitness for binding parS DNA” value was at most 0.2.

For PMPV, the “one-hybrid fitness for binding parS DNA” value is at most 0.2.

Turning to QTFT, the “one-hybrid fitness for binding parS DNA” value was at most 0.2.

For TRCD, the “one-hybrid fitness for binding parS DNA” value was at most 0.2.

HMAT: the “one-hybrid fitness for binding parS DNA” value is at most 0.2.

Turning to PFDL, the “one-hybrid fitness for binding parS DNA” value was at most 0.2.

SYHA: the “one-hybrid fitness for binding parS DNA” value is at most 0.2.

For the variant LPDY, the “one-hybrid fitness for binding parS DNA” value was at most 0.2.

In the case of LWSP, the “one-hybrid fitness for binding parS DNA” value was at most 0.2.

Regarding QQPP, the “one-hybrid fitness for binding parS DNA” value is at most 0.2.

For the variant PLDR, the “one-hybrid fitness for binding parS DNA” value was at most 0.2.

For the variant STHW, the “one-hybrid fitness for binding parS DNA” value was at most 0.2.

Take RCYG: the “one-hybrid fitness for binding parS DNA” value turned out to be 1.04.

Take EMPS: the “one-hybrid fitness for binding parS DNA” value was at most 0.2.

For ELST, the “one-hybrid fitness for binding parS DNA” value is at most 0.2.

Take QHIK: the “one-hybrid fitness for binding parS DNA” value was at most 0.2.

As to SCFK, the “one-hybrid fitness for binding parS DNA” value is at most 0.2.

For the variant LSHE, the “one-hybrid fitness for binding parS DNA” value is at most 0.2.

As to AKCW, the “one-hybrid fitness for binding parS DNA” value was at most 0.2.

Take APTR: the “one-hybrid fitness for binding parS DNA” value was at most 0.2.

As to DYVR, the “one-hybrid fitness for binding parS DNA” value is at most 0.2.

Turning to QSMY, the “one-hybrid fitness for binding parS DNA” value was at most 0.2.

For HYNG, the “one-hybrid fitness for binding parS DNA” value is at most 0.2.

In the case of ALTY, the “one-hybrid fitness for binding parS DNA” value was at most 0.2.

As to HQHS, the “one-hybrid fitness for binding parS DNA” value was at most 0.2.

For the variant MASY, the “one-hybrid fitness for binding parS DNA” value was at most 0.2.

On to LRQY, for which the “one-hybrid fitness for binding parS DNA” value was at most 0.2.

Regarding PRAA, the “one-hybrid fitness for binding parS DNA” value was at most 0.2.

Take LYFF: the “one-hybrid fitness for binding parS DNA” value was at most 0.2.

Consider SYRI, for which the “one-hybrid fitness for binding parS DNA” value was at most 0.2.

Regarding YIDL, the “one-hybrid fitness for binding parS DNA” value was at most 0.2.

With MSST, the “one-hybrid fitness for binding parS DNA” value is at most 0.2.

Consider YLNF, for which the “one-hybrid fitness for binding parS DNA” value is at most 0.2.

As to HHQT, the “one-hybrid fitness for binding parS DNA” value is at most 0.2.

Turning to LDLA, the “one-hybrid fitness for binding parS DNA” value is at most 0.2.

In the case of ELHI, the “one-hybrid fitness for binding parS DNA” value is at most 0.2.

Consider KCYR, for which the “one-hybrid fitness for binding parS DNA” value is at most 0.2.

In the case of MSKV, the “one-hybrid fitness for binding parS DNA” value was at most 0.2.

For the variant CHLT, the “one-hybrid fitness for binding parS DNA” value was at most 0.2.

For the variant GSAC, the “one-hybrid fitness for binding parS DNA” value is at most 0.2.

As to VGPN, the “one-hybrid fitness for binding parS DNA” value was at most 0.2.

Consider QYWN, for which the “one-hybrid fitness for binding parS DNA” value came to 0.322.

On to PPNN, for which the “one-hybrid fitness for binding parS DNA” value is at most 0.2.

For NYQR, the “one-hybrid fitness for binding parS DNA” value was at most 0.2.

In the case of HSWR, the “one-hybrid fitness for binding parS DNA” value is at most 0.2.

AHPV: the “one-hybrid fitness for binding parS DNA” value was at most 0.2.

As to VHPD, the “one-hybrid fitness for binding parS DNA” value was at most 0.2.

Regarding TGNT, the “one-hybrid fitness for binding parS DNA” value was at most 0.2.

As to PEHT, the “one-hybrid fitness for binding parS DNA” value was at most 0.2.

For APPP, the “one-hybrid fitness for binding parS DNA” value is at most 0.2.

Turning to WPPF, the “one-hybrid fitness for binding parS DNA” value was at most 0.2.

With STQD, the “one-hybrid fitness for binding parS DNA” value is at most 0.2.

On to PCGW, for which the “one-hybrid fitness for binding parS DNA” value was at most 0.2.

QWRW: the “one-hybrid fitness for binding parS DNA” value was at most 0.2.

Take HTDM: the “one-hybrid fitness for binding parS DNA” value is at most 0.2.

The values are drawn from a collection of fitness landscapes (doi:10.1016/j.celrep.2020.107928).
